Assay results published in patent US20130085283A1, “GERANYLGERANYLACETONE DERIVATIVES” (Coyote Pharmaceuticals, Inc., priority 2011, published 2013).
The name of at least one read-out is uncertain. Marks after values point to notes of the source that are not given here.

The molecules below were run on Neuro2A cells (assay: In vitro neuroprotection: Neuro2A cells cultured with GGA derivative with or without GGTI-298, cells that extended neurites counted). Settings: compound at 10 nM, normalized by the activity of CNS-102 (GGA trans-isomer).
Assay type: cell-based, mouse
Description: Neuro2A cells were cultured with a GGA derivative in the presence or absence of an inhibitor against a G-protein (GGTI-298). After differentiation was induced, cells that extended neurites were counted as an activity of the compound. The activities are shown in arbitrary units and were normalized by the activity of CNS-102 (GGA trans-isomer) in each parallel experiments.

SMILES | Activity 10 nM
CC(C)=CCC/C(C)=C/CC/C(C)=C/CC/C(C)=C/COC(=O)C1CCCC1 | 264 arbitrary units
CCOC(=O)C(C/C=C(\C)CC/C=C(\C)CC/C=C(\C)CC/C=C(\C)CCC=C(C)C)C(C)=O (stereo not shown) | 278 arbitrary units
CC(=O)CC/C=C(\C)CC/C=C(\C)CCC=C(C)C [drawing 27] | 192* arbitrary units
CCC(=CCCC(C)=O)CC/C=C(\C)CC/C=C(\C)CCC=C(C)C | 204 arbitrary units
OCC=C1CCCCC1 | 245* arbitrary units
CCC(=O)OC(C)CC/C=C(\C)CC/C=C(\C)CCC=C(C)C (stereo not shown) | 149 arbitrary units
CC(=O)OC(C)CC/C=C(\C)CC/C=C(\C)CCC=C(C)C (stereo not shown) | 238 arbitrary units
C=CCCC(=O)CC/C=C(\C)CC/C=C(\C)CC/C=C(\C)CCC=C(C)C | 206 arbitrary units
CC(C)=CCC/C(C)=C/CC/C(C)=C/CC/C(C)=C/CC/C(C)=C/CCC(=O)C1CC1 [drawing 119] | 226 arbitrary units
CCCCCNC(=O)OC(C)CC/C=C(\C)CC/C=C(\C)CCC=C(C)C (stereo not shown) [drawing 95] | 245 arbitrary units
C=CCO/N=C(\C)CC/C=C(\C)CC/C=C(\C)CC/C=C(\C)CCC=C(C)C | 214 arbitrary units
CC(=O)CC/C=C(\C)CC/C=C(\C)CC/C=C(\C)CC/C=C(\C)CCC=C(C)C [drawing 115] | 274* arbitrary units
CC(=O)CC/C=C(\C)CC/C=C(\C)CCC=C1CCCCC1 | 291 arbitrary units
CCC(=O)CC/C=C(\C)CC/C=C(\C)CCC=C(C)C | 202 arbitrary units
CCC(C)NC(=O)OC(C)CC/C=C(\C)CC/C=C(\C)CCC=C(C)C (stereo not shown) | 229 arbitrary units
CC(C)=CCC/C(C)=C/CC/C(C)=C/CC/C(C)=C/CCC1(C)OCCO1 [drawing 88] | 252 arbitrary units
CC(C)=CCC/C(C)=C/CC/C(C)=C/CCC(C)O (stereo not shown) | 224 arbitrary units
CCOC(=O)/C=C/C=C(\C)CC/C=C(\C)CC/C=C(\C)CCC=C(C)C | 200 arbitrary units
CCOC(=O)C1(C/C=C(\C)CC/C=C(\C)CC/C=C(\C)CCC=C(C)C)CCCCCC1=O (stereo not shown) | 168 arbitrary units
CCOC(=O)/C=C(\CC)CC/C=C(\C)CC/C=C(\C)CCC=C(C)C | 196 arbitrary units
CC(=O)C(C)C/C=C(\C)CC/C=C(\C)CC/C=C(\C)CCC=C(C)C (stereo not shown) | 142 arbitrary units

SMILES | Activity 10 nM
CC(C)=CCC/C(C)=C/CC/C(C)=C/CC/C(C)=C/CCC(=O)C(C)C | 165 arbitrary units
CC(C)=CCC/C(C)=C/CC/C(C)=C/CCC(=O)C(C)(C)C | 204 arbitrary units
CC(C)=CCC/C(C)=C/CC/C(C)=C/CCC(C)OC(=O)NC(C)C (stereo not shown) | 205 arbitrary units
COCC(=O)C(C/C=C(\C)CC/C=C(\C)CC/C=C(\C)CCC=C(C)C)C(=O)OC (stereo not shown) | 167 arbitrary units
CC(C)=CCC/C(C)=C/CC/C(C)=C/CCC(C)OC(=O)NCC1CCCCC1 (stereo not shown) [drawing 99] | 229 arbitrary units
CC(C)=CCC/C(C)=C/CC/C(C)=C/CC/C(C)=C/CC1CCCC1=O (stereo not shown) | 136 arbitrary units
CCOC(=O)/C=C(\C)CC/C=C(\C)CC/C=C(\C)CCC=C1CCCCC1 | 198 arbitrary units
CCCCCCNC(=O)OC(C)CC/C=C(\C)CC/C=C(\C)CC/C=C(\C)CCC=C(C)C (stereo not shown) [drawing 82] | 164 arbitrary units
CC(C)=CCC/C(C)=C/CC/C(C)=C/CC/C(C)=C/CCC(C)OC(=O)NC1CCCC1 (stereo not shown) | 201 arbitrary units
CC(C)=CCC/C(C)=C/CC/C(C)=C/CC/C(C)=C/CCC(C)=NO | 178 arbitrary units
CCC(=CCCC(=O)C(C)C)CC/C=C(\C)CC/C=C(\C)CCC=C(C)C | 236 arbitrary units
CCO/N=C(\C)CC/C=C(\C)CC/C=C(\C)CC/C=C(\C)CCC=C(C)C [drawing 90] | 173 arbitrary units
COCCC(=O)CC/C=C(\C)CC/C=C(\C)CC/C=C(\C)CCC=C(C)C | 217 arbitrary units
CC(C)=CCC/C(C)=C/CC/C(C)=C/CC/C(C)=C/CCC(C)OC(=O)NCC1CCCCC1 (stereo not shown) | 165 arbitrary units
CC(C)=CCC/C(C)=C/CC/C(C)=C/CC/C(C)=C/COS(=O)(=O)c1ccc(C)cc1 | 224 arbitrary units
CC(=O)CCC=C1CCCCC1 | 188* arbitrary units
CC(C)=CCC/C(C)=C/CC/C(C)=C/CC/C(C)=C/COS(=O)(=O)c1ccccc1 | 189 arbitrary units
CCC(=O)OC/C=C(\C)CC/C=C(\C)CC/C=C(\C)CCC=C(C)C | 147 arbitrary units
CC(C)=CCC/C(C)=C/CC/C(C)=C/CC/C(C)=C/CC/C(C)=N/OC1CCCCO1 (stereo not shown) | 245 arbitrary units
CCOC(=O)/C=C(\C)CC/C=C(\C)CC/C=C(\C)CCC=C(C)C | 154 arbitrary units
CCOC(=O)/C=C(\C)CC/C=C(\C)CCC=C1CCCCC1 | 264 arbitrary units

SMILES | Activity 10 nM
CC(C)=CCC/C(C)=C/CC/C(C)=C/CC/C(C)=C/COC(=O)C1CC1 | 155 arbitrary units
CCNC(=O)OC(C)CC/C=C(\C)CC/C=C(\C)CCC=C(C)C (stereo not shown) | 190 arbitrary units
C=CCCC(=O)C(C/C=C(\C)CC/C=C(\C)CC/C=C(\C)CCC=C(C)C)C(=O)OC (stereo not shown) | 162 arbitrary units
CCC(=CCO)CC/C=C(\C)CC/C=C(\C)CCC=C(C)C | 204 arbitrary units
CC(C)=CCC/C(C)=C/CC/C(C)=C/CC/C(C)=C/C=O [drawing 44] | 174 arbitrary units
CC(C)=CCC/C(C)=C/CC/C(C)=C/CCC(=O)C(C)C | 192 arbitrary units
COCC(=O)CC/C=C(\C)CC/C=C(\C)CC/C=C(\C)CCC=C(C)C | 158 arbitrary units
COC(=O)C(NC(=O)OC(C)CC/C=C(\C)CC/C=C(\C)CC/C=C(\C)CC(C)C=C(C)C)C(C)C (stereo not shown) | 200 arbitrary units
CC(C)=CCC/C(C)=C/CC/C(C)=C/CC/C(C)=C/CCC(=O)C12CC3CC(CC(C3)C1)C2 | 187 arbitrary units
CCOC(=O)C(C/C=C(\C)CC/C=C(\C)CC/C=C(\C)CCC=C(C)C)C(=O)c1ccoc1 (stereo not shown) | 152 arbitrary units
CCCCC(=O)CC/C=C(\C)CC/C=C(\C)CC/C=C(\C)CCC=C(C)C | 209 arbitrary units
CCCC(=O)CC/C=C(\C)CC/C=C(\C)CC/C=C(\C)CCC=C(C)C | 158 arbitrary units
CC(=O)CC/C=C(\C)CC/C=C(\C)CC/C=C(\C)CCC=C1CCCCC1 | 300 arbitrary units
CCOC(=O)C1(C/C=C(\C)CC/C=C(\C)CC/C=C(\C)CCC=C(C)C)CCCC1=O (stereo not shown) | 131 arbitrary units
CCCC(=O)C(C/C=C(\C)CC/C=C(\C)CC/C=C(\C)CCC=C(C)C)C(=O)OCC (stereo not shown) | 188 arbitrary units
COCCC(=O)C(C/C=C(\C)CC/C=C(\C)CC/C=C(\C)CCC=C(C)C)C(=O)OC (stereo not shown) [drawing 64] | 141 arbitrary units
CC/C(=C\CCC(=O)C12CC3CC(CC(C3)C1)C2)CC/C=C(\C)CC/C=C(\C)CCC=C(C)C [drawing 110] | 179 arbitrary units
CCCCCCNC(=O)OC(C)CC/C=C(\C)CC/C=C(\C)CC/C=C(\C)CCC=C(C)C (stereo not shown) [drawing 89] | 262 arbitrary units
CC(C)=CCC/C(C)=C/CC/C(C)=C/CC/C(C)=C/CCC(C)O (stereo not shown) | 170 arbitrary units
CC(C)=CCC/C(C)=C/CC/C(C)=C/CC/C(C)=C/CO | 295* arbitrary units
CCC(=O)C(C/C=C(\C)CC/C=C(\C)CC/C=C(\C)CCC=C(C)C)C(=O)OC (stereo not shown) | 212 arbitrary units

SMILES | Activity 10 nM
CC(C)=CCC/C(C)=C/CC/C(C)=C/CC/C(C)=C/CCC(C)OC(=O)NC(C)C (stereo not shown) | 189 arbitrary units
CCOC(=O)C(C/C=C(\C)CC/C=C(\C)CC/C=C(\C)CCC=C(C)C)C(=O)C1CC1 (stereo not shown) | 160 arbitrary units
CC(C)=CCC/C(C)=C/CC/C(C)=C/CC/C(C)=C/COC(=O)C(C)C | 160 arbitrary units
CC(C)=CCC/C(C)=C/CC/C(C)=C/CCC(C)OC(=O)NC1CCCCCC1 (stereo not shown) | 176 arbitrary units
CC(C)=CCC/C(C)=C/CC/C(C)=C/CC/C(C)=C/CCC(C)OC(=O)NC1CCCCCC1 (stereo not shown) | 213 arbitrary units
CC(C)=CCC/C(C)=C/CC/C(C)=C/CC/C(C)=C/CCC(=O)c1ccoc1 | 191 arbitrary units
CCCCCNC(=O)OC(C)CC/C=C(\C)CC/C=C(\C)CC/C=C(\C)CCC=C(C)C (stereo not shown) | 200 arbitrary units
CCCCCNC(=O)OC(C)CC/C=C(\C)CC/C=C(\C)CCC=C(C)C (stereo not shown) [drawing 109] | 179 arbitrary units
CC(C)=CCC/C(C)=C/CC/C(C)=C/CCC(C)OC(=O)NC1CCCCC1 (stereo not shown) | 244 arbitrary units
CC(=O)C(C/C=C(\C)CC/C=C(\C)CC/C=C(\C)CCC=C(C)C)C(C)=O | 244 arbitrary units
CC(=O)OC/C=C(\C)CC/C=C(\C)CC/C=C(\C)CCC=C(C)C | 289 arbitrary units
CC(C)=CCC/C(C)=C/CC/C(C)=C/CC/C(C)=C/CCC(=O)C(C)(C)C [drawing 41] | 198 arbitrary units
CC(C)=CCC/C(C)=C/CC/C(C)=C/CC/C(C)=C/COS(C)(=O)=O | 240 arbitrary units
CC(C)=CCC/C(C)=C/CC/C(C)=C/CC/C(C)=C/CC1CCCCCC1=O (stereo not shown) | 151 arbitrary units
CC(=O)CC/C=C(\C)CCC=C1CCCCC1 | 149* arbitrary units
CCOC(=O)C(C/C=C(\C)CC/C=C(\C)CC/C=C(\C)CCC=C(C)C)C(C)=O (stereo not shown) [drawing 70] | 185 arbitrary units
COC(=O)C(NC(=O)OC(C)CC/C=C(\C)CC/C=C(\C)CCC=C(C)C)C(C)C (stereo not shown) [drawing 103] | 254 arbitrary units
CCC(=O)CC/C=C(\CC)CC/C=C(\C)CC/C=C(\C)CCC=C(C)C [drawing 111] | 247 arbitrary units
CCCCC(=O)C(C/C=C(\C)CC/C=C(\C)CC/C=C(\C)CCC=C(C)C)C(=O)OCC (stereo not shown) | 243 arbitrary units
